From publication PMC4336329 (PLoS ONE, 2015)
Screen size: about 310,000 compounds; about 14,000 (4.5%) showed an effect of 50% or more. The effect is printed as a negative number. This is one part of the list.

target: human ether-à-go-go-related gene (hERG) potassium channel (human, UniProt Q12809); assay: primary screen, population patch clamp on CHO cells stably expressing hERG
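Further: peak tail current of the secondary pulse compared with the same well before compound.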

human ether-à-go-go-related gene (hERG) potassium channel, sequence (Q12809 whole entry, looked up): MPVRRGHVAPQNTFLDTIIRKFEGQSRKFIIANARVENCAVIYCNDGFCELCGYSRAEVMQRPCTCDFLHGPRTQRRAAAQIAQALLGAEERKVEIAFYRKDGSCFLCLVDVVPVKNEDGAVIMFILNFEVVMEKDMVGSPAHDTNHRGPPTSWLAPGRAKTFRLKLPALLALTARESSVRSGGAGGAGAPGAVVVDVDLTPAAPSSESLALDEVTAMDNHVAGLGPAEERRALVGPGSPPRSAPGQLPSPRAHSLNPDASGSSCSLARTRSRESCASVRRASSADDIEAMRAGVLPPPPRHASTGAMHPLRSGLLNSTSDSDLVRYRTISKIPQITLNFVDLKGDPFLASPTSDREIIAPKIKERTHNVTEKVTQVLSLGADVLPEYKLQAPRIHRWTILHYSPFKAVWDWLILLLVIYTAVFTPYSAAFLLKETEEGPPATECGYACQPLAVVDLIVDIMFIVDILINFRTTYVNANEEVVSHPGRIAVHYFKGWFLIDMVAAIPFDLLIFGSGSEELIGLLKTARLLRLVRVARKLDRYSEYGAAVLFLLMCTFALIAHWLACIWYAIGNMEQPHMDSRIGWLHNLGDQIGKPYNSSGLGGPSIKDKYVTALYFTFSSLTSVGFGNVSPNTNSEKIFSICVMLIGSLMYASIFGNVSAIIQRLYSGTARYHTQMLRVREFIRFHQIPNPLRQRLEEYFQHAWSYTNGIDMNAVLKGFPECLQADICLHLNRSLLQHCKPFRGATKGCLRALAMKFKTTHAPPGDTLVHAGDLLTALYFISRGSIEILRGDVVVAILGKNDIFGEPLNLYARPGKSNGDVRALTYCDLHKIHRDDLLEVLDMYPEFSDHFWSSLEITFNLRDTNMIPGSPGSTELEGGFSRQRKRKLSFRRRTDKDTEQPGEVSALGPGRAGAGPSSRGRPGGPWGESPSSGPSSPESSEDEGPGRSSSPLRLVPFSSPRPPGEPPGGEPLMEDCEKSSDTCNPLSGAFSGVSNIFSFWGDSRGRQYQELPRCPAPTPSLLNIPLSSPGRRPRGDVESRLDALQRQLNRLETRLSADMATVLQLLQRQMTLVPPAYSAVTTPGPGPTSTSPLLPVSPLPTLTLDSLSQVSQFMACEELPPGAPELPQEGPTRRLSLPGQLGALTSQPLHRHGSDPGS

SMILES	hERG current change (%, negative = inhibition) at 10uM
Cc1cc(C)cc(C(=O)NC(CC(N)=O)c2ccc(NC3CCCCCCCCCCC3)c([N+](=O)[O-])c2)c1 (centres unmarked)	-7.58%
CCOC(=O)c1csc(NC(=O)C2=COCCO2)n1	16.5%
COCCCNC(=O)CCc1c(C)nc2c(-c3ccc(F)cc3)c(C)nn2c1C	-38.5%
CCCCC1=CC2=CC(=O)C(C)(OC(=O)CCC(=O)OC)C(=O)C2=CO1 (centres unmarked)	5.72%
CCOC(=O)c1c(NC(=O)CSc2nnc(-c3ccc(C)cc3)o2)sc(C(C)=O)c1C	9.09%
CC(C)C[C@@H](C(=O)NC1CCN(Cc2ccccc2)CC1)N1C(=O)N2CCc3c([nH]c4ccccc34)[C@@]2(C)C1=O	-53.2%
CCOC(=O)c1sc2nc(C)nc(NCCc3ccc(S(N)(=O)=O)cc3)c2c1C	10.4%
Cc1cc(C(C)(C)C)cc(C)c1S(=O)(=O)N1CCN(C(=O)c2cc([N+](=O)[O-])c[nH]c2=O)CC1	-4.17%
O=C(COC(=O)c1ccncc1)c1ccc(Br)cc1	-15.3%
COc1ccc2cc(C(=O)N3CCC(Cc4ccccc4)CC3)[nH]c2c1	25.5%
Cc1ccc2c(c1)N(C(=O)CCC(=O)NCCN1CCOCC1)CC(C)O2 (centres unmarked)	6.88%
CC(C)(C)NC(=O)C(=O)NN=C1CCCCCCCCCCC1	10.5%
CC(C)(C)NC(=O)CSc1nc(O)cc(=O)[nH]1	0.43%
Cc1cc(N2C(=O)C(O)=C(C(=O)c3cc4ccccc4o3)C2c2ccc([N+](=O)[O-])cc2)no1 (centres unmarked)	15.1%
Cc1nnc(NC(=O)CSc2ccc(-c3ccccn3)nn2)s1	12.1%
Cc1onc(-c2c(Cl)cccc2Cl)c1C(=O)NCc1ccco1	-1.44%
Cc1onc(-c2ccccc2)c1C(=O)Nc1ccccc1NC(=O)c1c(-c2ccccc2)noc1C	8.33%
CCN1CCCC1CNC(=O)Cn1cc2c(n1)CCC(C)C2 (centres unmarked)	5.4%
COC(=O)c1c(NC(=S)NNS(=O)(=O)c2ccc(OC)cc2OC)sc2c1CCCCCC2	0.694%
COCCN1C(=O)c2ccccc2C(C(=O)NCc2ccco2)C1c1c[nH]c2ccccc12 (centres unmarked)	-4.01%
Cc1ccc(-c2[nH]c3ccccc3c2SCCN)cc1	-27.6%
CCCOc1ccc(-c2nc(C#N)c(N3CCc4ccccc4C3)o2)cc1	-5.29%
Cc1c(C(=O)N2CCOCC2)oc2ccc(S(=O)(=O)N3CCCCCC3)cc12	0.0285%
